Each structure is given as a SMILES string. In all, about 310,000 compounds went through this assay and about 2,200 (0.71%) showed an effect of 50% or more. The effect is printed as a negative number. Some of the results follow.

The target of the test is human ether-à-go-go-related gene (hERG) potassium channel (human, UniProt Q12809). Put plainly: primary screen, population patch clamp on CHO cells stably expressing hERG.
Sequence of human ether-à-go-go-related gene (hERG) potassium channel (Q12809 whole entry, looked up): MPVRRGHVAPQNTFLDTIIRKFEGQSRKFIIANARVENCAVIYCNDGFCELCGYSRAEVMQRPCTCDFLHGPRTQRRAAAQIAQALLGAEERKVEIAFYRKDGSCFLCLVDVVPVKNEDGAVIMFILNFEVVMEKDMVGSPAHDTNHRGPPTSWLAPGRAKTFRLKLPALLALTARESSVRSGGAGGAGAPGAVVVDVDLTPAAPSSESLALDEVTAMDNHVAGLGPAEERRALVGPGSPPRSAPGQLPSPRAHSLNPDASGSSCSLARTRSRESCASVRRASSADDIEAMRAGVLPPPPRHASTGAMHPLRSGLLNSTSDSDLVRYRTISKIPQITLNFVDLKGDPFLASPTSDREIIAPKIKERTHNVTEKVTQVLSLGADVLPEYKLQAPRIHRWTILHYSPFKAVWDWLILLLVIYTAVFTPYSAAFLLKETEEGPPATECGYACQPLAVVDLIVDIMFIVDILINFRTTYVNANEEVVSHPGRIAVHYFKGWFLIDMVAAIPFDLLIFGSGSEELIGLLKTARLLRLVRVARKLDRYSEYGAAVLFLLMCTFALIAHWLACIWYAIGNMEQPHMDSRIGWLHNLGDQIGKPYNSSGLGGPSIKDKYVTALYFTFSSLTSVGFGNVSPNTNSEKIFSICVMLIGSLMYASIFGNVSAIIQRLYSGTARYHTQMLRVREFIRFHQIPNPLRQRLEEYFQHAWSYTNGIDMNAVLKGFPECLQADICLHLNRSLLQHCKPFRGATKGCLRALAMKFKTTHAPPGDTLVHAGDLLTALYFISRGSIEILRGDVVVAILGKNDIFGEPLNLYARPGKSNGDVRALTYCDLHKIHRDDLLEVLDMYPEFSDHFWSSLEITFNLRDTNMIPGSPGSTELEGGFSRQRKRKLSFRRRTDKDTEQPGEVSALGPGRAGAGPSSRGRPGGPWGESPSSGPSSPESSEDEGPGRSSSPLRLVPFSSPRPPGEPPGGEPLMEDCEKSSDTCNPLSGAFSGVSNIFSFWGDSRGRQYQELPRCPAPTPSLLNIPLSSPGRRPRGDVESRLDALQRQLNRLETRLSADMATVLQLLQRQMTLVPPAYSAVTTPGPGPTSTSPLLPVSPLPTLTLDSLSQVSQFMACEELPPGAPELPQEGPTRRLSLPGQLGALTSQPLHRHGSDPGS
For `Cc1cc(C)n(-c2nc(NC(C)(C)C)nc(NC(C)(C)C)n2)n1`, the “hERG current change (%, negative = inhibition) at 1uM” value was -9.53%. Regarding `COc1cccc(N(CC(=O)NCCSCc2ccco2)S(=O)(=O)c2ccccc2)c1`, the “hERG current change (%, negative = inhibition) at 1uM” value came out at 3.13%.

In the case of `CCN(CC)c1ncnc2sc(C(=O)N3CCN(c4ccccc4)CC3)c(C)c12`, the “hERG current change (%, negative = inhibition) at 1uM” value is -1.59%. The result for `COc1ccccc1-n1cc(-c2ccc([N+](=O)[O-])cc2)[nH]c1=S` reads 9.79%; that for `Cc1ccc(C(=O)c2no[n+]([O-])c2C(=O)c2ccc(C)cc2)cc1`, -1.36%. The result for `O=C(Cn1ccc(NC(=O)OCc2ccccc2)nc1=O)NCCCc1ccccc1` reads 18.3%; that for `COc1cccc(C(=O)Nc2nc(-c3ccc(S(=O)(=O)N4CCOCC4)cc3)cs2)c1`, 7%; that for `CCOc1ccc(C(=O)NCCc2cnc[nH]2)cc1OCC`, 17%. Take `CCN(CC)P(=O)(/C=C(\Cl)c1ccccc1)/C=C(\Cl)c1ccccc1`: the “hERG current change (%, negative = inhibition) at 1uM” value is 13%. The result for `COc1ccc(CCN2CC(C(=O)NCc3ccco3)CC2=O)cc1OC` (stereo not shown) reads 11.2%; that for `COc1cc(C2NC(=O)NC(C)=C2C(=O)OCC2CCCO2)cc(OC)c1OC` (stereo not shown), 19.1%; that for `O=C1NC(=Nc2cccc([N+](=O)[O-])c2)SC1(CO)CO`, 2.12%. Regarding `COc1ccccc1CC(=O)Nc1ccc(Cl)cc1C(=O)O`, the “hERG current change (%, negative = inhibition) at 1uM” value was determined as 9.83%. In the case of `COc1ccccc1CCNS(=O)(=O)c1ccc(C(=O)O)n1C` it was 11.6%; in that of `O=C1CN(C(=O)/C=C/c2ccc(Cl)cc2Cl)CCN1`, 1.56%. As for `Fc1ccc(Cn2cccc2C2=NC(c3ccccc3)CO2)cc1` (stereo not shown), the “hERG current change (%, negative = inhibition) at 1uM” value is recorded as 0.0212%.

`COCCN(CC(=O)NCc1ccc(F)cc1)C(=O)CCC(=O)Nc1ccccn1`: the “hERG current change (%, negative = inhibition) at 1uM” value is on record as 10.4%. In the case of `CCOc1ccccc1N(C)S(=O)(=O)c1ccc2c(c1)CCN2C(=O)CCC(=O)O` it was 16.4%; in that of `CCOc1ccc(N2C(=O)C3C(c4ccc(OC)cc4OC)NC(CCSC)(C(=O)OC)C3C2=O)cc1` (stereo not shown), 8.03%; in that of `O=C1NC(=O)N(c2ccc3c(c2)OCO3)C(=O)/C1=C/c1cccs1`, 16.6%.

With `O=C(c1cccc(-n2cnnn2)c1)N1CCOCC1`, the “hERG current change (%, negative = inhibition) at 1uM” value turned out to be 2.61%.

As for `Cc1ccc(S(=O)(=O)N2CCCCC2)cc1C(=O)NCc1ccncc1`, the “hERG current change (%, negative = inhibition) at 1uM” value is 10.4%. In the case of `CCc1ccc(/C=N\n2cnnc2)cc1` it was 11%. For `O=C(Oc1c(CN2CCOCC2)cc(Cl)c2cccnc12)c1ccccc1Cl`, the “hERG current change (%, negative = inhibition) at 1uM” value turned out to be 5.78%. Regarding `CCn1nc(C)c(/C=N/NC(=O)Cn2nc(C)cc2C)c1C`, the “hERG current change (%, negative = inhibition) at 1uM” value was determined as 10.2%.

Regarding `CC(=O)c1ccc(NC(=S)NC(C)CCc2ccccc2)cc1` (stereo not shown), the “hERG current change (%, negative = inhibition) at 1uM” value turned out to be 9.87%. The result for `COc1ccc(CN(CC2CCCO2)S(=O)(=O)c2ccc(C(=O)O)cc2)cc1OC` (stereo not shown) reads 0.828%; that for `CC(=O)Nc1ccc(Nc2nc(C)c([N+](=O)[O-])c(Nc3ccc(NC(C)=O)cc3)n2)cc1`, 20.7%; that for `O=C(C1CCCN(S(=O)(=O)c2cccc3cccnc23)C1)N1CCN(c2ccc(F)cc2)CC1` (stereo not shown), -50.1%.

Take `COc1ccc(N(CC(=O)N2CCN(C)CC2)S(=O)(=O)c2ccccc2)cc1`: the “hERG current change (%, negative = inhibition) at 1uM” value amounted to 7.23%. As for `COc1ccc(-n2cc(CN(C)C3CCOCC3)c(-c3cccc(F)c3)n2)cc1`, the “hERG current change (%, negative = inhibition) at 1uM” value is -3.87%. For `CC(=O)OCC(=O)[C@@]1(O)CC[C@H]2[C@@H]3CCC4=CC(=O)C=C[C@]4(C)[C@H]3C(=O)C[C@@]21C`, the “hERG current change (%, negative = inhibition) at 1uM” value is listed as 18.6%. The result for `CCc1nccn1S(=O)(=O)c1cc(OC)c(Cl)cc1OC` reads -8.36%. The result for `CCCCCC(=O)OCCc1c(C)nc2nc[nH]n2c1=O` reads 14.3%; that for `COc1ccc(Nc2nc(N)nc(CN3CCOCC3)n2)cc1`, 1.93%.

Turning to `CCOC(=O)c1[nH]c(C)c(/C=N/O)c1C`, the “hERG current change (%, negative = inhibition) at 1uM” value is 0.579%.

Take `COCCOCC(O)CN1CCN(c2ccccc2)CC1.O=C(O)C(=O)O` (stereo not shown): the “hERG current change (%, negative = inhibition) at 1uM” value came out at 2.97%. In the case of `COc1ccccc1CCC(=O)NC1CCCN(c2ccc(C(F)(F)F)cn2)C1` (stereo not shown) it was 6.13%; in that of `CC(C(=O)Nc1ccccc1)N(C)CCOc1ccc(Br)cc1` (stereo not shown), 5.82%; in that of `CC(C)(C)NC(=O)c1ccc(NC(=O)c2ccccc2-c2ccccc2C(=O)O)cc1`, 22.2%.

As for `Cc1cc(C)c(C(=O)N(C)CC2CCCN(CCc3ccccc3F)C2)o1` (stereo not shown), the “hERG current change (%, negative = inhibition) at 1uM” value is -48%. Consider `CCN1CCN(c2cc(C)c3cc(NC(=S)NCCN(C)C)ccc3n2)CC1`, for which the “hERG current change (%, negative = inhibition) at 1uM” value stood at 8.49%. In the case of `Cc1ccc(-n2cc(-c3ccccc3)c3c(=O)[nH]cnc32)cc1` it was 0.911%.

The values are drawn from publication PMC4336329 (PLoS ONE, 2015).
